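The compound was tested at five concentrations on cells cultured in 96-well plates, with a 48-hour exposure period. At the TGI there is no net growth.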
How the values were obtained:
Test in all cases: NCI anticancer screen, dose series, 48 h
786-0 renal = test system: 786-0 renal
A498 renal = test system: A498 renal
A549 NSCLC = test system: A549 NSCLC
ACHN renal = test system: ACHN renal
BT-549 breast = test system: BT-549 breast
CAKI-1 renal = test system: CAKI-1 renal
CCRF-CEM leukemia = test system: CCRF-CEM leukemia
COLO 205 colon = test system: COLO 205 colon
DU-145 prostate = test system: DU-145 prostate
EKVX NSCLC = test system: EKVX NSCLC
HCC-2998 colon = test system: HCC-2998 colon
HCT-116 colon = test system: HCT-116 colon
HCT-15 colon = test system: HCT-15 colon
HL-60(TB) leukemia = test system: HL-60(TB) leukemia
HOP-62 NSCLC = test system: HOP-62 NSCLC
HOP-92 NSCLC = test system: HOP-92 NSCLC
HS 578T breast = test system: HS 578T breast
HT29 colon = test system: HT29 colon
IGROV1 ovarian = test system: IGROV1 ovarian
K-562 leukemia = test system: K-562 leukemia
KM12 colon = test system: KM12 colon
LOX IMVI melanoma = test system: LOX IMVI melanoma
M14 melanoma = test system: M14 melanoma
MALME-3M melanoma = test system: MALME-3M melanoma
MCF7 breast = test system: MCF7 breast
MDA-MB-231 breast = test system: MDA-MB-231 breast
MDA-MB-435 = test system: MDA-MB-435
MDA-N = test system: MDA-N
MOLT-4 leukemia = test system: MOLT-4 leukemia
NCI-H226 lung = test system: NCI-H226 lung
NCI-H23 lung = test system: NCI-H23 lung
NCI-H460 lung = test system: NCI-H460 lung
NCI-H522 lung = test system: NCI-H522 lung
NCI/ADR-RES ovarian = test system: NCI/ADR-RES ovarian
OVCAR-3 ovarian = test system: OVCAR-3 ovarian
OVCAR-4 ovarian = test system: OVCAR-4 ovarian
OVCAR-5 ovarian = test system: OVCAR-5 ovarian
OVCAR-8 ovarian = test system: OVCAR-8 ovarian
PC-3 prostate = test system: PC-3 prostate
RPMI-8226 leukemia = test system: RPMI-8226 leukemia
RXF 393 renal = test system: RXF 393 renal
SF-268 CNS = test system: SF-268 CNS
SF-295 CNS = test system: SF-295 CNS
SF-539 CNS = test system: SF-539 CNS
SK-MEL-2 melanoma = test system: SK-MEL-2 melanoma
SK-MEL-28 melanoma = test system: SK-MEL-28 melanoma
SK-MEL-5 melanoma = test system: SK-MEL-5 melanoma
SK-OV-3 ovarian = test system: SK-OV-3 ovarian
SN12C renal = test system: SN12C renal
SNB-19 CNS = test system: SNB-19 CNS
SNB-75 CNS = test system: SNB-75 CNS
SR leukemia = test system: SR leukemia
SW-620 colon = test system: SW-620 colon
T-47D breast = test system: T-47D breast
TK-10 renal = test system: TK-10 renal
U251 CNS = test system: U251 CNS
UACC-257 melanoma = test system: UACC-257 melanoma
UACC-62 melanoma = test system: UACC-62 melanoma
UO-31 renal = test system: UO-31 renal

COc1cccc2c1NC(=O)Cc1c-2[nH]c2ccc(Br)cc12
TGI (786-0 renal): 14.6 µM
TGI (A498 renal): 81.5 µM
TGI (A549 NSCLC): 45 µM
TGI (ACHN renal): 53.7 µM
TGI (BT-549 breast): 69.4 µM
TGI (CAKI-1 renal): 57.2 µM
TGI (CCRF-CEM leukemia): > 100 µM
TGI (COLO 205 colon): > 100 µM
TGI (DU-145 prostate): 54 µM
TGI (EKVX NSCLC): 77.4 µM
TGI (HCC-2998 colon): 71.6 µM
TGI (HCT-116 colon): 24.4 µM
TGI (HCT-15 colon): > 100 µM
TGI (HL-60(TB) leukemia): > 100 µM
TGI (HOP-62 NSCLC): 39.3 µM
TGI (HOP-92 NSCLC): > 100 µM
TGI (HS 578T breast): > 100 µM
TGI (HT29 colon): 33.7 µM
TGI (IGROV1 ovarian): 80.8 µM
TGI (K-562 leukemia): > 100 µM
TGI (KM12 colon): > 100 µM
TGI (LOX IMVI melanoma): > 100 µM
TGI (M14 melanoma): > 100 µM
TGI (MALME-3M melanoma): > 100 µM
TGI (MCF7 breast): 67.4 µM
TGI (MDA-MB-231 breast): > 100 µM
TGI (MDA-MB-435): > 100 µM
TGI (MDA-N): > 100 µM
TGI (MOLT-4 leukemia): 68 µM
TGI (NCI-H226 lung): 75.5 µM
TGI (NCI-H23 lung): > 100 µM
TGI (NCI-H460 lung): 62.4 µM
TGI (NCI-H522 lung): > 100 µM
TGI (NCI/ADR-RES ovarian): 46 µM
TGI (OVCAR-3 ovarian): 40.5 µM
TGI (OVCAR-4 ovarian): 81.5 µM
TGI (OVCAR-5 ovarian): 74.3 µM
TGI (OVCAR-8 ovarian): > 100 µM
TGI (PC-3 prostate): 50.3 µM
TGI (RPMI-8226 leukemia): > 100 µM
TGI (RXF 393 renal): 54.9 µM
TGI (SF-268 CNS): > 100 µM
TGI (SF-295 CNS): 64.5 µM
TGI (SF-539 CNS): > 100 µM
TGI (SK-MEL-2 melanoma): 99.9 µM
TGI (SK-MEL-28 melanoma): > 100 µM
TGI (SK-MEL-5 melanoma): > 100 µM
TGI (SK-OV-3 ovarian): 87.5 µM
TGI (SN12C renal): > 100 µM
TGI (SNB-19 CNS): 54.5 µM
TGI (SNB-75 CNS): 87.4 µM
TGI (SR leukemia): 67.4 µM
TGI (SW-620 colon): > 100 µM
TGI (T-47D breast): > 100 µM
TGI (TK-10 renal): 66.7 µM
TGI (U251 CNS): 60.7 µM
TGI (UACC-257 melanoma): > 100 µM
TGI (UACC-62 melanoma): > 100 µM
TGI (UO-31 renal): 60.9 µM
